In PubChem BioAssay AID504832 (National Center for Advancing Translational Sciences (NCATS), 2011):
Screen size: about 310,000 compounds; about 18,000 (5.8%) were called active. Inconclusive results, whose numbers are uncertain, are shown with a selection of clear calls. Calls follow the shape of the dose curve; as a rule, active = well fitted inhibition curve with a large enough effect; inconclusive = small, poorly fitted or top-dose-only effect, or another doubt; inactive = no such curve, though single readings can be large or run the other way. Potencies of inconclusive entries are left out as doubtful fits.

Test: Primary qHTS for delayed death inhibitors of the malarial parasite plastid, 48 hour incubation
Conditions: P. falciparum luciferase growth in erythrocytes; series mostly up to 28.7 µM
In short: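 Here the parasites carry a stable luciferase gene and grow inside erythrocytes in Albumax-based RPMI medium with compound for one erythrocytic cycle. Activity is scored as loss of luminescent signal.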
% is scaled to controls: 0 for no effect and ±100 for the full control effect; potency is read from the fitted curve at half-maximal effect; tags tell the direction and shape of the fitted curve.

Structure (SMILES)	Potency	activity change, negative = inhibition
CCSc1nnc(SCC(=O)c2c(N)n(C)c(=O)n(C)c2=O)s1	inconclusive [inhibitor, full curve, poor fit]	–
O=C(CSc1nnc(-c2ccc(S(=O)(=O)N3CCCC3)cc2)o1)NCc1ccccc1	inconclusive [inhibitor, partial curve, poor fit]	–
COc1ccccc1Nc1nc(N)nc(CN2CCC(Cc3ccccc3)CC2)n1	inconclusive [inhibitor, single point]	–
CCC(C)(C)C1CCc2[nH]nc(C(=O)NCc3ccc(Cl)cc3)c2C1 (stereo not drawn)	inconclusive [inhibitor, partial curve, poor fit]	–
C#CCOCCOCCOCCNc1nc(N2CCN(C(=O)[C@H]([C@@H](C)CC)n3cc([C@@H](N)CC(C)C)nn3)CC2)nc(N2CCN(C(=O)[C@H](CCCCN)n3cc([C@@H](N)CO)nn3)CC2)n1	inactive	–
COc1ccc(NS(=O)(=O)c2ccc(N3CCOCC3)c(NC(=O)c3ccco3)c2)cc1	inconclusive [inhibitor, single point]	–
COC(=O)C(O)(c1c(C)[nH]c2ccccc12)C(F)(F)F (stereo not drawn)	inconclusive [inhibitor, single point]	–
COc1ccc(-n2c(-c3ccc(Cl)cc3)c[n+]3c2CCCCC3)cc1	active: 1.04 µM	–
Cc1cc(S(=O)(=O)NCc2ccc(N3CCN(C)CC3)cc2)c(C)s1	inconclusive [inhibitor, single point]	–
Clc1ccc(-c2nnnn2-c2ccc(Cl)cc2)cc1	inactive	–
COc1cc(C2OCC3C(c4cc(OC)c(OC)c(OC)c4)OCC23)cc(OC)c1OC (stereo not drawn)	inconclusive [inhibitor, partial curve, poor fit]	–
CCc1ccc2oc(=O)cc(CN3CCN(c4ccc(F)cc4)CC3)c2c1	inconclusive [inhibitor, partial curve, poor fit]	–
CCN(CC)S(=O)(=O)c1ccc2[nH]cc(C(=O)NCCc3ccc(OC)c(OC)c3)c(=O)c2c1	inconclusive [inhibitor, single point]	–
Cc1cccc(Cl)c1NC(=O)N1CCN(c2ccnc3cc(Cl)ccc23)CC1	inconclusive [inhibitor, full curve]	–
O=C(COC(=O)CCC(=O)c1ccc(Cl)cc1)NCc1ccco1	inactive	–
CC[C@@]12C(=O)N(c3cccc(Cl)c3)C(=O)N1[C@H](c1ccc(Br)cc1)[C@@H]1C(=O)N(C(C)(C)C)C(=O)[C@@H]12	active: 9.28 µM	–
CCSc1nnc(-c2ccc(Cl)cc2)c2ccccc12	inconclusive [inhibitor, single point]	–
CCOc1cccc(-c2c(C(=O)N/N=C/c3cccnc3)nnn2-c2nonc2N)c1	inactive	–
Cc1ccc(CNC(=O)CN2C(=O)COc3ccc(S(=O)(=O)N4CCCCC4)cc32)o1	inactive	–
COc1ccc(S(=O)(=O)N2CCC(C(=O)N(C)Cc3ccc(C)o3)CC2)cc1OC	inconclusive [inhibitor, single point]	–
C[C@]12CCC3[C@@H](CCC4=CC(=O)CC[C@@]43C=O)C1CCC2=O (stereo partly drawn)	inconclusive [inhibitor, partial curve, poor fit]	–
CC1CCN(S(=O)(=O)c2ccc(NC(=O)c3cccs3)cc2)CC1	active: 4.65 µM	–
COc1cc(/C=C(\C#N)c2nc3ccccc3[nH]2)ccc1Oc1ccc([N+](=O)[O-])cn1	active: 5.86 µM	–

Structure (SMILES)	Potency	activity change, negative = inhibition
C=COCCNC(=S)N1CCOCCOCCN(C(=S)NCCOC=C)CCOCCOCC1	inconclusive [inhibitor, partial curve, poor fit]	–
CS(=O)(=O)c1ccc(S(=O)CC(=O)Oc2ccc(Cl)cc2)c([N+](=O)[O-])c1 (stereo not drawn)	inconclusive [inhibitor, partial curve]	–
O=C(Cn1c(=O)n(CC2CS2)c2ccccc21)N1CCCCC1 (stereo not drawn)	inconclusive [inhibitor, single point]	–
COC(=O)c1ccccc1NC(=O)c1ccc(COc2cccc3ccccc23)o1	inactive	–
Cc1ccc2cn[nH]c2c1N	inconclusive [inhibitor, full curve, poor fit]	–
CNC(=O)COC(=O)c1cc(-c2ccco2)nc2ccccc12	inactive	–
Cn1cccc1C1C(C#N)=C(N)OC2=C1C(=O)CCC2 (stereo not drawn)	inactive	–
COc1ccccc1CNC(=O)CCNS(=O)(=O)c1ccc2c(c1)CC(C)N2C(C)=O (stereo not drawn)	inactive	–
CC12CCC(=O)N1C(C(=O)N1CCN(S(=O)(=O)c3ccc(F)c(F)c3)CC1)CS2 (stereo not drawn)	inconclusive [inhibitor, single point]	–
CC(=O)N1CCCc2cc(S(=O)(=O)N3CCCC(C(=O)NCc4ccccc4Cl)C3)ccc21 (stereo not drawn)	inconclusive [inhibitor, partial curve, poor fit]	–
Cc1ccc(-c2cc(-c3ccccc3)cc(-c3ccccc3)[n+]2-c2ccccc2)cc1	active: 0.37 µM	–
Oc1ccc2c(c1)c1c3n2CCNC3CCC1 (stereo not drawn)	inconclusive [inhibitor, single point]	–
CC1Oc2ccccc2N(CC(=O)c2ccc(F)cc2)C1=O (stereo not drawn)	inactive	–
CCN1CCN(Cc2c(O)ccc3c2O/C(=C\C=C\c2ccccc2OC)C3=O)CC1	active: 2.94 µM	–
CCc1nnc(NC(=O)[C@@H](NC(=O)c2cc(OC)cc(OC)c2)C(C)C)s1	inactive	–
O=C(/C=C1\NC2(CCCC2)Cc2ccccc21)C(=O)N/N=C/c1ccc(O)c(O)c1	inconclusive [inhibitor, single point]	–
Cc1cc(NC(=O)c2ccccc2)n(-c2nc3ccccc3[nH]2)n1	inactive	–
Cc1onc(-c2ccc3c(c2)OCO3)c1-c1ccc2[nH]ccc2c1	inactive	–
COc1ccccc1NS(=O)(=O)c1ccc2oc(=O)ccc2c1	inconclusive [inhibitor, single point]	–
CCn1cc(C(=O)N2CCN(c3ccccn3)CC2)c(=O)c2cc(S(=O)(=O)N(C)C3CCCCC3)ccc21	inconclusive [inhibitor, partial curve, poor fit]	–
COCCNC(=O)c1ccc2c(c1)ncn2-c1ccc(F)c(F)c1	inactive	–
COc1ccc([C@@H]2CC=C(C(=O)O)[C@H](c3ccc(Cl)cc3)N2S(=O)(=O)c2ccc(Cl)cc2)cc1	inconclusive [inhibitor, single point]	–
OCCNCCSc1nc(C2CCCCC2)n(-c2ccccc2Cl)n1	inconclusive [inhibitor, single point]	–

Structure (SMILES)	Potency	activity change, negative = inhibition
N#Cc1ccc(-c2csc(NNC(=O)c3ccccc3)n2)cc1	active: 11.7 µM	–
CCCCCn1c(=O)c(C(=O)Nc2ccccn2)c(O)c2ccccc21	inconclusive [inhibitor, single point]	–
COc1cccc(NC(=S)N2CCN(S(=O)(=O)c3ccc(F)cc3)CC2)c1	active: 1.85 µM	–
O=C(Nc1nc2ccccc2[nH]1)C12CC3CC(CC(C3)C1)C2	inconclusive [inhibitor, single point]	–
CN1C(=O)NC(c2cccc([N+](=O)[O-])c2)C2=C1CCCC2=O (stereo not drawn)	–	inactive: -19.4% [at 0.00184 µM]
CC(C(=O)N1CCOCC1)N1C(=O)C2C3CC(C(Br)C3Br)C2C1=O (stereo not drawn)	inactive	–
Cc1ccc(C)c(OC(=O)c2cccc(S(=O)(=O)N3CCN(C)CC3)c2)c1	inconclusive [inhibitor, full curve, poor fit]	–
COc1ccc(C(=O)Nc2ccc(C(F)(F)F)n(C)c2=O)cc1	inactive	–
O=C(CSc1ccc(-c2cccnc2)nn1)Nc1ccc(F)c(F)c1	inconclusive [inhibitor, single point]	–
CCCS(=O)(=O)Nc1ccc(N2CCCCC2)c(S(=O)(=O)Nc2ccccc2OC)c1	active: 10.4 µM	–
O=C(NC1CCCCC1)c1ccc(S(=O)(=O)c2ccccc2Cl)c([N+](=O)[O-])c1	inconclusive [inhibitor, partial curve]	–
COc1cc(OC)cc(C(=O)Nc2ccccc2C(=O)N2CCCC2)c1	inactive	–
CCN(CC)CCCNC(=O)c1cc(-c2ccccc2)c(N2CCCCC2)s1	inactive	–
Cc1cc(C)c(OCCCCN(C)Cc2ccccc2)c(C)c1	inactive	–
O=C(NCCN1CCN(c2ccccc2F)CC1)C1c2ccccc2C(=O)N2CCc3ccccc3C12 (stereo not drawn)	inconclusive [inhibitor, single point]	–
Cc1ccc(S(=O)(=O)c2nc(C)oc2N2CCOCC2)cc1	inconclusive [inhibitor, partial curve, poor fit]	–
NC(=S)NN=C(Cc1ccccc1)Cc1ccccc1	inconclusive [inhibitor, single point]	–
Cc1ccc(NC(=O)NCC2CCN(Cc3cc(C)ccc3Cl)CC2)c(C)c1	inconclusive [inhibitor, partial curve]	–
CCCNc1c(NS(=O)(=O)c2ccc(Br)cc2)c(=O)oc2ccccc12	inconclusive [inhibitor, full curve, poor fit]	–
CC(=O)Nc1ccc(S(=O)(=O)N(Cc2ccco2)Cc2cc3ccccc3[nH]c2=O)cc1	inactive	–
O=C(CSc1nc2ncc(Cl)cc2[nH]1)c1ccc2c(c1)OCO2	inconclusive [inhibitor, single point]	–
O=C1C=C(Nc2ccccc2)c2ccccc2C1=O	inconclusive [inhibitor, partial curve]	–
